Laboratory results from the supplement of paper PMC3334620.
In all, about 33,000 sequences were measured (“E-score (-0.5 to 0.5)”: median about -0.032, highest 2% from about 0.36 on). Some of the results follow.

These sequences were tested against T1, Sko1 (UniProt Q02100) (assay: PBM E-score (8-mer binding enrichment) (E-score (-0.5 to 0.5)); higher = stronger / more preferred TF binding; most listed sequences are background and not binding sites). Conditions: protein concentration: 200 nM; construct: GST-full length.
T1 sequence: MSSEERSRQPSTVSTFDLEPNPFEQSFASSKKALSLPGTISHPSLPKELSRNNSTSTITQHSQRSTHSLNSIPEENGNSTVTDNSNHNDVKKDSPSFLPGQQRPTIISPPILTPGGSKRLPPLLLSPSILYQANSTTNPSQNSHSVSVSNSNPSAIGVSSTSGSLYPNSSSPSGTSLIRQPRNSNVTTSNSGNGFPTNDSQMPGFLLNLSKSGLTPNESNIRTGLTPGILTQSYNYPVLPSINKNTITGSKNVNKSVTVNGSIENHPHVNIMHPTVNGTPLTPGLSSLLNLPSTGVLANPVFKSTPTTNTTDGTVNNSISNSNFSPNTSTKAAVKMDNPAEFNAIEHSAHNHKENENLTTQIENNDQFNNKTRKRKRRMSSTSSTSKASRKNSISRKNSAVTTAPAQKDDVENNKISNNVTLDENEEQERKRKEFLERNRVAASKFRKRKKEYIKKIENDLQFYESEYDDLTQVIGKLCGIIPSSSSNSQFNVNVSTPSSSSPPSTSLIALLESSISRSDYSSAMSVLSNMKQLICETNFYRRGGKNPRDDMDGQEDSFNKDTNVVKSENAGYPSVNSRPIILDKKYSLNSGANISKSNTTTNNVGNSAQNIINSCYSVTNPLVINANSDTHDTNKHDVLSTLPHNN
How it was run: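 Universal all-10-mer Agilent arrays, fresh or stripped once, were converted to double-stranded form by primer extension. GST-tagged yeast transcription factors from PURExpress in vitro transcription/translation, full-length or DNA-binding domain only, were applied at about 100-200 nM and detected with fluorescent anti-GST. After masliner normalisation, the Universal PBM Analysis Suite scored each ungapped eight-base word together with its reverse complement by E-score.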

Row | Sequence | PBM E-score
1 | GCAATACC | 0.0431
2 | AGGACAAC | 0.154
3 | GCGACCTA | -0.117
4 | GCTGGTGA | 0.012
5 | CCTAAGCG | -0.139
6 | GAAATTTA | 0.208
7 | ATAAAAGG | -0.0649
8 | GGAAAGAC | -0.0809
9 | TCTATTAA | 0.117
10 | AGTCCAAG | -0.208
11 | AGTCGGGC | -0.167
12 | ACTGCTCC | -0.203
13 | GGAGCTGA | -0.101
14 | AGGTTCAG | -0.115
15 | CTTCCTCC | -0.237
16 | CTTAAAAA | 0.182
17 | AACGCGTG | 0.232
18 | CTAAGCTA | 0.0685
19 | AAGTCACC | -0.00714
20 | AGAATTAT | 0.247
21 | ACGTCGGA | 0.273
22 | ACAGCTGA | 0.0321
23 | CTGTGCCA | -0.191
24 | CGCTCCCG | -0.139
25 | CGCGCCGC | -0.106

Row | Sequence | PBM E-score
26 | CATGGACG | 0.228
27 | ACCAACCC | -0.102
28 | CTGAACAA | 0.0862
29 | CTTAGATC | -0.00163
30 | CGAAATCG | 0.0483
31 | AAGGGTAA | -0.146
32 | AAATCAGG | 0.0636
33 | CCAGAGGA | -0.21
34 | CCGAACGC | -0.0725
35 | ACACGAGG | -0.138
36 | GATGGTCA | -0.0743
37 | TGCAAGAA | 0.105
38 | CCTCCGAG | -0.337
39 | GAATGGAA | 0.12
40 | GGATCGGA | -0.23
41 | CGTGTAGA | 0.162
42 | CACGTCAC | 0.482
43 | GGGATCCA | -0.0947
44 | CGTACGGC | 0.251
45 | ATATAACG | 0.342
46 | CAATATAA | 0.215
47 | TGCGAGCA | -0.0905
48 | CCCGAGAA | -0.206
49 | ATACCCAG | -0.249
50 | ATTGAACA | 0.14

Row | Sequence | PBM E-score
51 | AGGTGACG | 0.388
52 | AAGAGTCG | 0.0344
53 | ACGGCTAG | -0.115
54 | GGTGACTA | 0.0101
55 | CCTGATGC | -0.0632
56 | AACCCATT | -0.0377
57 | ACTGTATG | 0.0782
58 | CGGCCAGA | -0.00809
59 | GGGTCCCA | -0.197
60 | CCGGCACG | -0.0598
61 | CGGCTAAG | -0.14
62 | CTCGAGGC | -0.217
63 | AAAGCTAG | -0.105
64 | CCCCGCAG | -0.302
65 | ACGAAAAA | 0.26
66 | CCTCTATA | -0.164
67 | CGCGCGTC | 0.189
68 | CGCAGCGA | 0.0221
69 | ATATGAGG | -0.0112
70 | ATTGTCGC | 0.114
71 | GAAACGGA | 0.15
72 | CGAAGCCC | -0.167
73 | GGCCACAA | -0.172
74 | AAGCAGTG | 0.035
75 | CGCAGGCC | -0.175

Row | Sequence | PBM E-score
76 | GTGCACGA | 0.0663
77 | CCTTCTCG | -0.203
78 | GGAGTGAC | 0.0852
79 | CAGAGAGG | -0.453
80 | ATGATATG | 0.264
81 | ACTTTGAA | 0.0988
82 | GTCGAACA | -0.00814
83 | CAGTAGTC | -0.0789
84 | CACCGCTC | -0.197
85 | ATAAGGGC | 0.0973
86 | ATCACCAC | 0.117
87 | ACTTAGCG | 0.0634
88 | AGGCAAAC | -0.029
89 | CTGATATC | -0.054
90 | AATCTAAA | 0.0802
91 | AGATGAGA | -0.051
92 | ACCCTGAT | -0.0969
93 | ACAGAACT | 0.105
94 | AACGATGG | -0.0107
95 | AAGTCTAG | -0.123
96 | ACCATGAC | 0.33
97 | ATTTGACC | 0.0811
98 | ACACAGTA | -0.0011
99 | AAGACAAC | 0.122
100 | GCAAGGAC | -0.202

Row | Sequence | PBM E-score
101 | GCACCTGA | -0.0568
102 | GCGGAAAA | -0.0507
103 | GACTGTTA | 0.0705
104 | TCTGCACA | 0.0341
105 | AAGCAGGC | -0.13
106 | CTGTTCCA | -0.036
107 | ACCCGGCT | -0.295
108 | GACGGCCC | -0.294
109 | TCGGCACA | -0.0756
110 | ATCATCCG | -0.0992
111 | CCGAGTTA | -0.0694
112 | ATGGGTGC | -0.0925
113 | CTTCGTGA | 0.186
114 | AGGAGTCC | -0.36
115 | AGGATCTC | -0.269
116 | AAACACTC | 0.0324
117 | AGCACACA | -0.143
118 | CTGCACAA | 0.0052
119 | CAACCGAC | 0.159
120 | ACGCTCTG | -0.0625
121 | CCACCATA | -0.1
122 | ATTTGATG | 0.112
123 | GTCTCCCA | -0.261
124 | ACGTTAAC | 0.332
125 | CGAAGATA | 0.16

Row | Sequence | PBM E-score
126 | ACATTCAC | -0.0321
127 | CATCCTTA | 0.0469
128 | AGAAGGGG | -0.316
129 | CCTGCGCG | -0.127
130 | CCGCCTCA | -0.292
131 | CTCTTGGA | -0.1
132 | ATTGACTA | -0.0436
133 | CCAGGGAG | -0.205
134 | GGCCGTCA | -0.184
135 | GAAATCTC | 0.0418
136 | AAAGTCCG | -0.155
137 | AGACTGAA | -0.0673
138 | ACCTCCAT | -0.332
139 | CCCGTTCG | -0.12
140 | AACTTGGT | 0.0279
141 | ATTCAGAG | 0.0009
142 | CACGAGAC | 0.105
143 | CCGAACTA | -0.0814
144 | GTCGGTCA | -0.129
145 | AAACGGTT | -0.193
146 | CGGGTCAC | -0.217
147 | ACGCCTAG | -0.085
148 | AGAATCGA | -0.0448
149 | CGTATCAG | 0.262
150 | CTTTTAAC | 0.0204

Row | Sequence | PBM E-score
151 | GTGCGTCA | 0.456
152 | CAACTAGC | 0.0232
153 | GTGCCGTA | 0.0237
154 | GGTACGCA | 0.268
155 | CGGACAGA | -0.0901
156 | CCCGGACA | -0.179
157 | ACACGCGA | 0.251
158 | CTTATGTA | 0.274
159 | ATCCAGCC | -0.356
160 | TAACGTAA | 0.457
161 | TAGATTCA | 0.00378
162 | CCCTGCCG | -0.375
163 | GAGGAGGA | -0.17
164 | AATTATTG | 0.189
165 | ACCGGTAA | 0.00473
166 | GTGTCGTA | 0.312
167 | ACCGTTAG | -0.0707
168 | AGCCAATG | -0.049
169 | AATATGAC | 0.367
170 | CCTATTAA | -0.0774
171 | CAGATAAC | 0.00415
172 | CTCTCAGA | -0.0843
